Here are results for 57 sequences from the supplement of paper PMC11417369.

± gives the standard deviation of the averaged measurements. Some of the results follow.

The experiment concerns PfAP2-LT AP2 domain (GST-tagged). Nature of the experiment: gcPBM binding intensity (ln(normalized median fluorescence intensity)); higher = stronger DNA binding. In outline: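 GST-fused DNA-binding domains of P. falciparum, expressed in E. coli, were applied at about 25 μg on average for 1 h to an Agilent 4 × 180k array of primer-extended double-stranded 36-bp intergenic genomic probes and negative controls. Binding intensity is the highest Masliner-normalised natural-log median intensity across replicate spots of either probe orientation, measured with Alexa488 anti-GST antibody and a 488 nm scan.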
As to “GTTCAAAATATGAACACACACATATATATATATATA [CACACA_site2057]”, the “gcPBM binding intensity (ln)” value is 10 ± 0.014.
Consider TTTCGTAATATGCGTGTGCACAATGAGTCCATATCT, for which the “gcPBM binding intensity (ln)” value worked out at 9.24 ± 0.39.
With “ATCTACATATATTATTGTACATTGTTAAAAATTTAT [XGTACX_site7769]” the figure was 8.77 ± 0.41; with “GTAAATATGTTTATTAGTACACATATGAAAATAAAT [XGTACX_site5820]”, 8.89 ± 0.45.
With “GTTGTTTCTATAAATTGTACTTAAATATAATTATAT [XGTACX_site585]” the figure was 8.73 ± 0.35; with “ATATATTGTATGTGCTCACACATGTTTCGATATTAT [CACACA_site4336]”, 9.16 ± 0.35.
With “TCTTTTTTTTTACATACTTTTTTCCTTTTTTTTTTA [CACACA_negctrl_site1429]”, the “gcPBM binding intensity (ln)” value is 8.58 ± 0.61.
Then “ACGCACGAAATAAATACATGCATATTGTAAAAATTA [TGCATGCA_site310]”, with 8.88 ± 0.42; and “GGGAATATATTCAATTGTACATTCTTATTTTATCCA [XGTACX_site8480]”, with 8.82 ± 0.45; and “CTAGACTTTTTACAATGTACATATTTATGTATTATT [XGTACX_site1833]”, with 8.99 ± 0.34.
Then “TCTTGTAGATATATTTGTACATATATTTATGGGTAT [XGTACX_site1139]”, with 8.88 ± 0.4; and “TTTTTTCATAAATAATGTACATATATATATATATAT [XGTACX_site3620]”, with 9.16 ± 0.13.
With “ATATTATTTATAAGTTGTACGGTATAATATAATATA [XGTACX_site5371]” the figure was 8.47 ± 0.36; with “AAAATTTTTTACTTTACACACATTTTGTATATTTTG [CACACA_site1730]”, 9.15 ± 0.38.
Turning to “AAAAAATATATATTAACACACACACTAATAAAAAAA [CACACA_site8366]”, the “gcPBM binding intensity (ln)” value was found to be 9.56 ± 0.17.
Consider “TATTTAATGCAAAAACGTACATAAATAACATTCACA [XGTACX_site5356]”, for which the “gcPBM binding intensity (ln)” value came to 8.72 ± 0.36.
For “TATAAACACCCATATAAACACACATACATACATACA [CACACA_site8791]”, the “gcPBM binding intensity (ln)” value was 9.51 ± 0.33.
With “TATATATATATTAGTGGTACAAGATTTTTTTCTTTT [XGTACX_site4619]” the figure was 8.52 ± 0.49.
With “CAACTCTTATTTAATTATATGAATTAATTTATATGA [CACACA_negctrl_site200]” the figure was 8.42 ± 0.37.
On to “TGCATAAATTTATGCACACATAAAAAAAAAAAAAAA [CACACA_site2923]”, for which the “gcPBM binding intensity (ln)” value worked out at 8.91 ± 0.44.
Consider “CATAAATGTCTCACATGTACATATGCATTTTTAAAA [XGTACX_site3194]”, for which the “gcPBM binding intensity (ln)” value amounted to 8.57 ± 0.33.
Then “TATATATAATATTGCACACAAAATTAAAAGTAAATA [CACACA_site19]”, with 9.06 ± 0.4; and “ATTATTTTGTTTATTACATGCAGGTGTATATTACAG [TGCATGCA_site723]”, with 8.9 ± 0.33; and “GAGTATATTTATATTGCACACAATTTTTTTATTTTT [CACACA_site2644]”, with 9.1 ± 0.42.
For “TTAAATACTAAAAAGTGTACACATACATAAAAAATT [XGTACX_site6261]”, the “gcPBM binding intensity (ln)” value stood at 8.96 ± 0.45.
Turning to “ATTATGTTAATAATATGTACATATATCTACATATAT [XGTACX_site7978]”, the “gcPBM binding intensity (ln)” value came out at 9.04 ± 0.43.
With “AAAATATTATCTAATTGTACTTATATAACTATATAT [XGTACX_site5699]” the figure was 8.69 ± 0.42; with “TTGAAATGCATGAACACACACAGCTATAAATGCATA [CACACA_site968]”, 9.39 ± 0.4.
On to “AAATTTATGAACCTAGTGCAGAAATTAAAAAGATGA [GTGCAC_site9396]”, for which the “gcPBM binding intensity (ln)” value is 8.69 ± 0.46.
“ATACTAAGGAGAAAAGAAAAGTGAATTTATTCTATA [CACACA_negctrl_site1792]”: the “gcPBM binding intensity (ln)” value was found to be 8.37 ± 0.63.
With “TAATAAATAAATGACACACACACACCCAAAAAAAAA [CACACA_site2623]” the figure was 10.1 ± 0.41; with “TTATTAACCTAAATTAGTACATATAATATAAAAAAT [XGTACX_site8661]”, 8.51 ± 0.4; with “AGCTATGTATTCTACACACACATACACCCATATATA [CACACA_site5827]”, 9.57 ± 0.23.
Take “TGAACTTTAAACCCTGAACACACACTAATACACCCA [CACACA_site7970]”: the “gcPBM binding intensity (ln)” value stood at 9.44 ± 0.24.
Then “AATATGTCATATATGTGTACATATGCACAGATATTA [XGTACX_site951]”, with 8.86 ± 0.38; and “ATAAAAAGAAATCCAATACACACCTTCAAAATGGGT [CACACA_site1622]”, with 9.04 ± 0.37.
Regarding “ATATATATAATAAATACACACATTTATATAGATAAA [CACACA_site3254]”, the “gcPBM binding intensity (ln)” value was determined as 8.9 ± 0.41.
Regarding “ATTCAATATTTATACACACACACTTTTAATAATTAA [CACACA_site7725]”, the “gcPBM binding intensity (ln)” value stood at 9.35 ± 0.16.
Turning to “AAACATTTATCAATGAATCTTTTAATAAGTGTAAAG [XGTACX_negctrl_site80]”, the “gcPBM binding intensity (ln)” value came out at 8.52 ± 0.46.
As for “TCATTCAGTTTTATCACACACAATCAAACATATATA [CACACA_site2742]”, the “gcPBM binding intensity (ln)” value turned out to be 8.99 ± 0.36.
Then “AATATAAGGATATATACACACATAAATACATACATA [CACACA_site7859]”, with 9.25 ± 0.45.
With “TATTTTTTTAGATATACATGCAAAAACAGAAGAAAT [TGCATGCA_site283]” the figure was 8.55 ± 0.36.
For the sequence “TCAACATTCATTGGAAGTACTCACTCCCATATAATA [XGTACX_site5211]”, the “gcPBM binding intensity (ln)” value came out at 8.54 ± 0.44.
“TTTTTATTTTTTATGTAATTTAAATAATTATTCAAA [CACACA_negctrl_site1549]”: the “gcPBM binding intensity (ln)” value was 8.17 ± 0.57.
With “AGTAAACGATGATGTTGTACAAAAAGGATAATTTAA [XGTACX_site6698]” the figure was 9.13 ± 0.5.
With “TACAAAAAAGAAGATATTCAAACAAAAACAAAAAAA [CACACA_negctrl_site1126]” the figure was 8.7 ± 0.45.
With “CAATACTATTATTATAGTACGTATAAAATTATATAT [XGTACX_site4950]” the figure was 8.71 ± 0.49.
As for “TATCATAATAGACACAGTACATATATGTCTTAAATT [XGTACX_site8775]”, the “gcPBM binding intensity (ln)” value turned out to be 8.84 ± 0.38.
Then “TATATATATATGCTACGTACATATATATTATATATA [XGTACX_site7894]”, with 9.05 ± 0.15.
With “GTATTCTTCTCTCCGTGTACATATATATGTATATAT [XGTACX_site803]” the figure was 9.21 ± 0.43; with “ACACATACATACATATGTACATATATACATATATAC [XGTACX_site5559]”, 9.22 ± 0.3.
For the sequence “TATATATAAACAAAATGTACATATTTGAGATACCCT [XGTACX_site2195]”, the “gcPBM binding intensity (ln)” value was 8.9 ± 0.32.
With “TGTTTCTAAAAAAAAGGTACACATATATATAATATA [XGTACX_site3217]” the figure was 8.49 ± 0.41.
Then “GTAACCCACCAAAATGCACACATTAAAAAAAAAAAA [CACACA_site1046]”, with 9.02 ± 0.47.
With “AAACCGTGGGAGCACACACACACACGCGCACATATA [CACACA_site6288]” the figure was 10 ± 0.3; with “ATAGTTTATACAAATAGTACGCACAAAAAAAAATAA [XGTACX_site6727]”, 8.8 ± 0.52.
Consider “TTTATCAAAATAAATGCACACAAATTGCACATATCT [CACACA_site8281]”, for which the “gcPBM binding intensity (ln)” value worked out at 9.09 ± 0.38.
